# Measured values as given in PubChem BioAssay (NCATS).
# The inconclusive results got no clear call from the source; some entries with a clear call stand among them for comparison. For some assays here: No potency is given beside an inconclusive call; the fits are too rough. For some assays here: “Side channel” marks fits to a control or component signal instead of the main read-out. The source made the active and inactive calls. Unless noted, calls come from the whole dose curve; as a rule, active = well fitted curve in the direction sought with a large enough effect; inconclusive = small, poorly fitted or top-dose-only effect, or another doubt; inactive = no such curve, though single readings can be large; an effect the other way counts as inactive or inconclusive.
# Experiments:
# [1] = Quantitative high throughput screen for delayed death inhibitors of the malarial parasite plastid, 48 hour incubation (AID 488752); conditions: Plasmodium falciparum growth; series mostly up to 28.7 µM; note: potency is the fitted concentration of half-maximal effect; nearly all actives have a fitted effect of over 65% in size
# Summary of the method: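 First, compound was pinned into RPMI 1640 medium containing 0.5% Albumax. Next, reporter-parasite-infected erythrocytes were added to 2% hematocrit and 0.1% parasitemia. After 48 h at 37 C under 5% CO2, luciferase detection reagent was added and luminescence read.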
# [2] = qHTS for Inhibitors of ATXN expression: Validation of Cytotoxic Assay (AID 588349); conditions: cytotoxicity counter-screen for ATXN expression inhibitors, cell viability; series mostly up to 57.1 µM; note: potency is the fitted concentration of half-maximal effect
# Summary of the method: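 Titrated compounds are added to cultured HEK293 cells, which are then held at 37 degrees C for 72 hr; loss of intracellular ATP, measured with CellTiter Glo, indicates toxicity.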
# [3] = Quantitative High-Throughput drug screen in 47 multiple myeloma cell lines against the NCATS MIPE library collection: KMS28BM_JCRB cell viability assay (AID 1919874); conditions: CellTiter-Glo ATP, 48 h; series mostly up to 45.8 µM; note: potency is the fitted concentration of half-maximal effect; nearly all actives have a fitted effect of over 35% in size
# Summary of the method: (§1)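 qHTS format: cells plated (500/well), pin-dosed with MIPE 4.0 compounds, kept 48 h at 37 °C. Readout was CellTiter-Glo luminescence, median RLU.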
# [4] = Quantitative High-Throughput drug screen in 47 multiple myeloma cell lines against the NCATS MIPE library collection: Delta47_JCRB cell viability assay (AID 1918925; note: potency is the fitted concentration of half-maximal effect; nearly all actives have a fitted effect of over 45% in size); conditions: Delta47 myeloma viability, CellTiter-Glo ATP, 48 h; series mostly up to 45.8 µM
# Summary of the method: (§2)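 Approved and investigational drugs from MIPE 4.0 were added by pin tool to 500 cells per well. After 48 hours at 37C, ATP-based CellTiter-Glo luminescence indicated remaining viability.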
# [5] = Quantitative High-Throughput drug screen in 47 multiple myeloma cell lines against the NCATS MIPE library collection: ARD_JJKsccE7 cell viability assay (AID 1918929; note: potency is the fitted concentration of half-maximal effect); conditions: ARD myeloma cell line viability, CellTiter-Glo, 48 h; series mostly up to 45.8 µM
# Summary of the method: as §2
# [6] = Quantitative High-Throughput drug screen in 47 multiple myeloma cell lines against the NCATS MIPE library collection: KMS12PE_JCRB cell viability assay (AID 1918972); conditions: KMS12PE myeloma viability, CellTiter-Glo ATP, 48 h; series mostly up to 45.8 µM; note: potency is the fitted concentration of half-maximal effect; nearly all actives have a fitted effect of over 30% in size
# Summary of the method: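 Luminescent ATP measurement with CellTiter-Glo gives viability, scaled between DMSO-only wells (100%) and media-only wells (0%). Cells, 500 per well, faced library compounds for 48 hours at 37C.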
# [7] = Quantitative High-Throughput drug screen in 47 multiple myeloma cell lines against the NCATS MIPE library collection: OCIMY1_PLB cell viability assay (AID 1918979); conditions: OCI-MY1 myeloma viability, CellTiter-Glo ATP, 48 h; series mostly up to 45.8 µM; note: potency is the fitted concentration of half-maximal effect; nearly all actives have a fitted effect of over 35% in size
# Summary of the method: as §1
# [8] = Quantitative High-Throughput drug screen in 47 multiple myeloma cell lines against the NCATS MIPE library collection: OPM2_DSMZ cell viability assay (AID 1919872); conditions: OPM2 myeloma viability, CellTiter-Glo ATP luminescence, 48 h; series mostly up to 45.8 µM; note: potency is the fitted concentration of half-maximal effect; nearly all actives have a fitted effect of over 30% in size
# Summary of the method: as §2
# [9] = qHTS of pediatric cancer cell lines to identify multiple opportunities for drug repurposing: Confirmatory screen for LAN-5 cells (AID 1347113); conditions: LAN-5 neuroblastoma cell viability; series mostly up to 45.9 µM; note: potency is the fitted concentration of half-maximal effect; nearly all actives have a fitted effect of over 65% in size
# Summary of the method: (§3)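 Cells (500-1,000/well) in growth media were settled 5 h at 37 degrees C, then given compounds for 48 h. Viability was read as CellTiter-Glo luminescence. Primary runs used MIPE at 11 points (0.78 nM-46 µM) and NPC at 8 points (0.59 nM-46 µM); follow-ups used 11 points.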
# [10] = AP1 Signaling Pathway (AID 357; active = well fitted curve in either direction with a large enough effect, not every such curve was filed as active; inconclusive = small, poorly fitted or top-dose-only effect, or another doubt;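 note: ME-180 reporter cells stimulated with EGF at its EC50 level; top concentration of the series differs between compounds; % is set by controls: 0 for no effect and ±100 for the full control effect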); conditions: ME-180 (cervical carcinoma) AP-1-bla reporter, EGF-induced, beta-lactamase ratio, 5 h; at 17.2 µM (top of the series)
# Summary of the method: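 First, ME-180 AP-1-bla cells were cultured overnight at 37 °C in low-serum Opti-MEM. Next, titrated compounds with EC50 EGF were incubated 5 hours. Finally, CCF4 was added for 2.5 hours and the 460/530 nm ratio recorded.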
# [11] = molecular target: Cytochrome P450 3A4 (Homo sapiens) (UniProt P08684); test: qHTS Assay for Activators of Cytochrome P450 3A4 (AID 885); conditions: recombinant CYP3A4, Luciferin-PPXE luminescence, 60 min; note: potency is the fitted concentration of half-maximal effect; nearly all actives have a fitted effect of over 65% in size
# Summary of the method: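 CYP3A4 activity: Luciferin-PPXE O-dealkylation, 25uM substrate, 200mM KPO4, RT throughout. Read-out is luciferase luminescence; higher values reflect activation.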
# [12] = qHTS of pediatric cancer cell lines to identify multiple opportunities for drug repurposing: Confirmatory screen for U-2 OS cells (AID 1347122); conditions: U-2 OS osteosarcoma cell viability; series mostly up to 45.9 µM; note: potency is the fitted concentration of half-maximal effect; nearly all actives have a fitted effect of over 65% in size
# Summary of the method: as §3
# [13] = qHTS of pediatric cancer cell lines to identify multiple opportunities for drug repurposing: Confirmatory screen for Rh18 cells (AID 1347125); conditions: Rh18 rhabdomyosarcoma cells, viability; series mostly up to 45.9 µM; note: potency is the fitted concentration of half-maximal effect; nearly all actives have a fitted effect of over 55% in size
# Summary of the method: as §3
# [14] = qHTS of pediatric cancer cell lines to identify multiple opportunities for drug repurposing: Confirmatory screen for Rh30 cells (AID 1347126); conditions: Rh30 rhabdomyosarcoma cell viability; activity change, negative = cytotoxic: at 45.9 µM (top of the series); note: potency is the fitted concentration of half-maximal effect; nearly all actives have a fitted effect of over 55% in size
# Summary of the method: as §3
# [15] = molecular target: Endonuclease 4 (Escherichia coli (strain K12)) (UniProt P0A6C1); test: Counterscreen for APE1 Inhibitors: qHTS Validation Assay for Inhibitors of Endonuclease IV (AID 1708); note: potency is the fitted concentration of half-maximal effect; conditions: E. coli endonuclease IV, DNA cleavage fluorescence; series mostly up to 57.1 µM
# Summary of the method: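 Enzyme (2 nM) + compound, 15 min RT; add 50 nM TAMRA/BHQ-2 THF-site dsDNA; kinetic read ex525/em598, 3 reads/60 s; activity = read 3 − read 1. Buffer Tris pH 7.5, 50 mM NaCl, 2 mM MgCl2, DTT, Tween-20.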
# [16] = molecular target: T1, Tyrosine-protein phosphatase non-receptor type substrate 1 (Homo sapiens) + Leukocyte surface antigen CD47 (Homo sapiens) (UniProt P78324+Q08722); test: CD47-SIRPalpha protein protein interaction - HTRF assay qHTS validation (AID 1347058; active = well fitted curve in the direction sought with a large enough effect in the signal ratio, not every such curve was filed as active; inconclusive = small, poorly fitted or top-dose-only effect, or effect the other way, or a change in a side signal; inactive = no such curve, though single readings can be large or run the other way; the % refers to the signal ratio; note: potency is the fitted concentration of half-maximal effect); conditions: TR-FRET HTRF CD47-His / biotin-SIRPalpha binding, ratio 665/615; series mostly up to 38.3 µM
# Summary of the method: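 Soluble extracellular domains (6His-CD47, Avi-tag-biotinylated SIRPalpha) in PBS pH 7.4 with 0.05% IGEPAL CA-630. Compounds were preincubated 30 min at RT with CD47 and anti-His-Eu, then SIRPalpha and SAV-XL665 were added. TR-FRET 665/615 ratio.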
# [17] = molecular target: T1, Tyrosine-protein phosphatase non-receptor type substrate 1 (Homo sapiens) + Leukocyte surface antigen CD47 (Homo sapiens); test: CD47-SIRPalpha protein protein interaction - Alpha assay qHTS validation (AID 1347059); conditions: AlphaScreen CD47-His/biotin-SIRPalpha binding, LOPAC; series mostly up to 38.3 µM;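 note: bead proximity luminescence from CD47 binding SIRPalpha after compound preincubation with SIRPalpha; potency is the fitted concentration of half-maximal effect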
# Summary of the method: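 In PBS (pH 7.4) with 0.05% IGEPAL CA-630, compound is preincubated with biotin-Avi-SIRPalpha ectodomain before His-CD47 ectodomain and affinity beads are added. Light-protected room-temperature incubations; AlphaScreen readout.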
# [18] = molecular target: Lysine-specific demethylase 5B (Homo sapiens) (UniProt Q9UGL1); test: Optimization screen for KDM5B Histone Demethylases FDH coupled qHTS against the LOPAC library (AID 1347166); conditions: KDM5B demethylation, FDH-coupled NADH fluorescence (FDH is formaldehyde dehydrogenase); series mostly up to 57.5 µM; note: potency is the fitted concentration of half-maximal effect
# Summary of the method: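 KDM5BDeltaAP (200nM final) in 50mM HEPES pH 7.5, 0.01% Tween-20 was preincubated with compound for 10 min at room temperature. A substrate mix of 12.5uM H3K4Me3, 25uM a-ketoglutarate, ascorbate, Fe2+, NAD+ and formaldehyde dehydrogenase was then added. NADH fluorescence (340/450 nm) was read initially and after 30 min.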
# [19] = HepG2 cells viability qHTS for Zika virus inhibitors (AID 1347168); conditions: Zika counter-screen; series mostly up to 45.9 µM; note: % is set by controls: 0 for no effect and ±100 for the full control effect
# Summary of the method: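 To flag cytotoxic protease inhibitors, viability is measured by ATP-dependent luminescence (CellTiter Glo) after cells attached overnight receive compound for 24 to 48 hours in DMEM with 4% FBS.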
# Papain (Carica papaya) = Papain (Carica papaya) (UniProt P00784); test: Primary qHTS assay for inhibitors of the protease papain (AID 1645873); conditions: papain Z-FR-AMC cleavage, AMC fluorescence; series mostly up to 49.8 µM;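 note: papain turnover of Z-FR-AMC read as the AMC fluorescence gain over 10 min; potency is the fitted concentration of half-maximal effect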
# Tags give direction and shape of the fitted curve.
# T1 sequence (P78324 whole entry, looked up, the tested form may be a part): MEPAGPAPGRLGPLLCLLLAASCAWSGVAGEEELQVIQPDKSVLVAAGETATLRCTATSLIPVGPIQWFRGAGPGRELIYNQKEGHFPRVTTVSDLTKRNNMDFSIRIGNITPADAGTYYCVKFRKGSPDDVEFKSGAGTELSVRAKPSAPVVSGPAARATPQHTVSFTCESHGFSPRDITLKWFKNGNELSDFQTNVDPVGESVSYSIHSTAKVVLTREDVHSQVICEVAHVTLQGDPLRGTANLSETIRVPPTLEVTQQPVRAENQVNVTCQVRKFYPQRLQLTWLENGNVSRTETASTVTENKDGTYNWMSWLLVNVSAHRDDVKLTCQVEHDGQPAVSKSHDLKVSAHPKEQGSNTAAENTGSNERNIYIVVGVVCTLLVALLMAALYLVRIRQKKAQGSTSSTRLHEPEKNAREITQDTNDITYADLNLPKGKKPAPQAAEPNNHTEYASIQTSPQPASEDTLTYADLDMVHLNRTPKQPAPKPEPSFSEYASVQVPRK
# T1 sequence (Q08722 whole entry, looked up, the tested form may be a part): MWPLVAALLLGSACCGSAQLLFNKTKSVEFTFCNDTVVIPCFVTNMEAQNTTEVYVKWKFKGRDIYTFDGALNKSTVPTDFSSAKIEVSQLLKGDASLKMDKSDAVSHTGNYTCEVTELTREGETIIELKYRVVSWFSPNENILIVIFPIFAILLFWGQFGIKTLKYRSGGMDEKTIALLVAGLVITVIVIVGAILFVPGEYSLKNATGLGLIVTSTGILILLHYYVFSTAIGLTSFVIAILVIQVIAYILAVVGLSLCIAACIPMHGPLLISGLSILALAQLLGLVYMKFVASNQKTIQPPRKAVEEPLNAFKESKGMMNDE
# Sequence of UniProt P08684 (P08684 whole entry, looked up): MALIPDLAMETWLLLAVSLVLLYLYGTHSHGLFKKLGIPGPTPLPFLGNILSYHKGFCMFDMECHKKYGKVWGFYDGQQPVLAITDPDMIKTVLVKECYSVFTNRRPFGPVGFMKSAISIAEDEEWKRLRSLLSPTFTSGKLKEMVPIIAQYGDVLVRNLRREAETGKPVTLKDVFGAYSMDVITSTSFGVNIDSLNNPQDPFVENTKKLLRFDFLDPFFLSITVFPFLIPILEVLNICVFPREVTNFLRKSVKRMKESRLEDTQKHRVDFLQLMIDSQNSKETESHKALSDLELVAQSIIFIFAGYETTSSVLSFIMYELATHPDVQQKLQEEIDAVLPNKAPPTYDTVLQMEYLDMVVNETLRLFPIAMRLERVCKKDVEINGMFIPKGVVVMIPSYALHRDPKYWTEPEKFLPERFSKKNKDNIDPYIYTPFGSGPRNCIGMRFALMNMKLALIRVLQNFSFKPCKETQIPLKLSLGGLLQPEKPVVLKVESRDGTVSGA
# Sequence of UniProt Q9UGL1 (Q9UGL1 whole entry, looked up): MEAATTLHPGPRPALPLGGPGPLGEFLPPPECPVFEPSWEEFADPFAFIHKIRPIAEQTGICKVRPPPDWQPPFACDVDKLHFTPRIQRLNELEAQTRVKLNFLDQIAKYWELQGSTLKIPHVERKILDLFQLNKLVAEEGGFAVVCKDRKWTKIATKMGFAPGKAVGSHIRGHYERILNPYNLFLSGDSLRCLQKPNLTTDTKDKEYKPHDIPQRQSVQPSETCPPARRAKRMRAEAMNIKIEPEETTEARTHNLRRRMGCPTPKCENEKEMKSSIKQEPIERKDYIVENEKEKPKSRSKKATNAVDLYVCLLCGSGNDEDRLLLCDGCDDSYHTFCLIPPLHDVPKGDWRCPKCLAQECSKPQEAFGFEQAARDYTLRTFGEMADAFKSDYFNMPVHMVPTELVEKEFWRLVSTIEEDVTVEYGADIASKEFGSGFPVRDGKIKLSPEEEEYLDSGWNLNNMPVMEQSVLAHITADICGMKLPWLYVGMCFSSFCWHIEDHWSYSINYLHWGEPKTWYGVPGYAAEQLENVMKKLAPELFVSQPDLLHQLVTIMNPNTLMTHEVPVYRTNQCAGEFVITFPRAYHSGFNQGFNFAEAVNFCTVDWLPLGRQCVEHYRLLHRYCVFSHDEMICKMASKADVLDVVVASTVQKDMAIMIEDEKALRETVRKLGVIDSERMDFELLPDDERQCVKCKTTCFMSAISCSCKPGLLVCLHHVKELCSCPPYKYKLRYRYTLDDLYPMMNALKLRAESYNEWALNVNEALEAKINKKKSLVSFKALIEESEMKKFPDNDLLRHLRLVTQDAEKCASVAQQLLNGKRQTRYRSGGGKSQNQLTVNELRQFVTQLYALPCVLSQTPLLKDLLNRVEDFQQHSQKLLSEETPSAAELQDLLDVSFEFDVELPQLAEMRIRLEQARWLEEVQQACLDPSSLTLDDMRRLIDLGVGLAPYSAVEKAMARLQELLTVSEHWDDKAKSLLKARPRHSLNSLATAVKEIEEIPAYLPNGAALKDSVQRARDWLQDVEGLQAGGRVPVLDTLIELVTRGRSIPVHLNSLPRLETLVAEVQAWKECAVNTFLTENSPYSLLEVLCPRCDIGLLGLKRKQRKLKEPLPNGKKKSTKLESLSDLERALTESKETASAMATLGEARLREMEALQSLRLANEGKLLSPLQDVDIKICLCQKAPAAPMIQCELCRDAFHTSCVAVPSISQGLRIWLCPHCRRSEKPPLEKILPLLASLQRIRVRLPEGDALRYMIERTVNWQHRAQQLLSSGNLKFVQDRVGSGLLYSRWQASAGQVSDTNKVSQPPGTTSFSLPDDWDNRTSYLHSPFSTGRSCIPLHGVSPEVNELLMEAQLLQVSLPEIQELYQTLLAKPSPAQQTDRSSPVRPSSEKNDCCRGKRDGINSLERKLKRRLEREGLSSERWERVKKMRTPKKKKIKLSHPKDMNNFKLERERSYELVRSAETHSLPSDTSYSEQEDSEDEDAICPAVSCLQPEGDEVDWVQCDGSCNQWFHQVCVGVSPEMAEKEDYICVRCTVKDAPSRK
# Sequence of UniProt P00784 (P00784 whole entry, looked up): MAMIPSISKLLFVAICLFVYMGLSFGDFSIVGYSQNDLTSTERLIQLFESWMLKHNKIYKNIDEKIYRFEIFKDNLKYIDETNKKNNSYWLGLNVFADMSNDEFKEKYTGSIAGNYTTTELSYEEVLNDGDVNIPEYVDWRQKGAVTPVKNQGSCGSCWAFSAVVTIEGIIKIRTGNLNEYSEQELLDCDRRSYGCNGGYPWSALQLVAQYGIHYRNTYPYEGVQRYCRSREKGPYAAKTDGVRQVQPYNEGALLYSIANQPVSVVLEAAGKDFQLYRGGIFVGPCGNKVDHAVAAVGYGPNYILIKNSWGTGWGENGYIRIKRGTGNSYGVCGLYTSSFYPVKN
smiles,measurement,setting,value
CCN(CC)CC#CCOC(=O)C(O)(c1ccccc1)C1CCCCC1 (stereo not given),Potency,[1],"inconclusive [inhibitor, single point]"
same,Potency,[2],"inconclusive [cytotoxic, partial curve]"
same,Potency,[3],"inconclusive [cytotoxic, single point]"
COc1cc(C(=O)NS(=O)(=O)c2ccccc2C)ccc1Cc1cn(C)c2ccc(NC(=O)OC3CCCC3)cc12,Potency,[4],active: 14.8 µM
same,Potency,[5],"inconclusive [cytotoxic, single point]"
same,Potency,[6],"inconclusive [rising, full curve, poor fit]"
same,Potency,[7],"inconclusive [cytotoxic, single point]"
same,Potency,[8],"inconclusive [cytotoxic, single point]"
CCC(=O)O[C@]1(C(=O)COC)[C@@H](C)C[C@H]2[C@@H]3CCC4=CC(=O)C=C[C@]4(C)C3(F)[C@@H](O)C[C@@]21C (stereo not given in full),Potency,[9],"inconclusive [rising, single point]"
CN1CCC(=C2c3ccccc3Sc3ccccc32)CC1,"activity change, negative = inhibition",[10],inconclusive: 66.1% [activator]
same,Potency,[11],"inconclusive [activator, partial curve]"
C[C@H]1C[C@H]2[C@@H]3CCC4=CC(=O)C=C[C@]4(C)[C@H]3C(=O)C[C@]2(C)[C@@]1(O)C(=O)CO,Potency,[12],"inconclusive [cytotoxic, full curve]"
same,Potency,[13],active: 3.29 µM
same,Potency,[14],"inconclusive [cytotoxic, full curve]"
COC(=O)[C@H]1[C@H]2C[C@@H]3c4[nH]c5cc(OC)ccc5c4CCN3C[C@H]2C[C@@H](OC(=O)c2cc(OC)c(OC)c(OC)c2)[C@@H]1OC,Potency,[15],"inconclusive [inhibitor, full curve]"
same,Potency,[16],"inconclusive [side channel, falling, single point]"
same,Potency,[17],"inconclusive [inhibitor, partial curve]"
same,Potency,[18],"inconclusive [inhibitor, partial curve, poor fit]"
same,Potency,[19],inactive
same,Potency,Papain (Carica papaya),"inconclusive [inhibitor, full curve]"
